T1: UNK ZnF1-3 (human, UniProt Q9C0B0 31-174)
T1 sequence: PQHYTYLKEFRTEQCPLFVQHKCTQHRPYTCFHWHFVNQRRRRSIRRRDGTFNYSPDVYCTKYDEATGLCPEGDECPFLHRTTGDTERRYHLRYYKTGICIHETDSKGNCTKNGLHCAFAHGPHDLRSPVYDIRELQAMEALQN

B1: chr11:95591783:95591784:-_ENSG00000087053_ENST00000352297|hu_mus|FALSE|FALSE (ssRNA)
RNA: GGGAGUUCUACAGUCCGACGAUCUCUCAAAUAUGGAUCUUCUUGUUCGCCCCUCCGGUUUAUGAGCAAAUCGCAAGUUCCUGAUAUCCUUGCACACAGUUUCCAGGCCAUAGGAGUUUUCACCUCGGCUAGAUGCACCACCAACAACAGAGGAUUGAGCAUCA
B2: chr1:122009976:122009977:-_ENSMUSG00000026385_ENSMUST00000027634|mus_mus|FALSE|FALSE (ssRNA)
RNA: GGGAGUUCUACAGUCCGACGAUCAAUUGAUUGUAGGUAAAAACUACAGAGGGAGGAGGAGCAGAGGUUAACGCUGGCCCUAAUGUAUCACAGCCAUAUCAUCUACAUUAGAAAAAACCAAGGCAUUAUGUCCUCACAGGUCACCAACAGAGGAUUGAGCAUCA
B3: chr2:232320318:232320319:-_ENSG00000115053_ENST00000322723|hu_hu|hu_hu_hu_mus_True|58_108 (ssRNA)
RNA: GGGAGUUCUACAGUCCGACGAUCACUGUUGAAGUCUACAAAACCAAACCCUUUGGAAGAACCAGUUUCCCGAUCAGUAACUAUCCUUGCACGAACAGAGCCCUCAAAUGAUUCUUUUAAGGUCUCUUCAGUGGUAUCCUCAGACAACAGAGGAUUGAGCAUCA
B4: chr16:94914985:94914986:+_ENSMUSG00000022897_ENSMUST00000023614|mus_hu|FALSE|FALSE (ssRNA)
RNA: GGGAGUUCUACAGUCCGACGAUCGUGAGGCAAAAAAGCAGUCACAUAAAAUUCUGCAUUUUUUAAAAAUGUUCAGGAUGAACAGAAGACAUCUUUGUGCAGAAGAAAUGGUGGAGAUACCACGUGCCGAGAAAAAGCAAAAGACAACAGAGGAUUGAGCAUCA
B5: 42743488_42743608_1179_3pUTR_ENSG00000103994_ENST00000263805|human|control|control (ssRNA)
RNA: GGGAGUUCUACAGUCCGACGAUCAUCACUUGUAAAUCCUUCAGAAGGACCUCUAUAUGUGGCAACUGUACCAAGUUUGUCAUUUUCUUGCCGCUGCCAAUUAUAUCUGUCGUGACUGUAUUUGUUUGACUUAUUAGAUUUCUUCAACAGAGGAUUGAGCAUCA
B6: chr11:46405157:46405158:+_ENSG00000110492_ENST00000395566|hu_hu|hu_hu_hu_mus_False|28_58 (ssRNA)
RNA: GGGAGUUCUACAGUCCGACGAUCCCCUCCCCACUUUGGGCACUUGGUGUGGGCGUGAGAGGACAGGCGUGAUUGACAAAGCUAACGGGAAGACAAAAGGCACUGGUGGGUCACAUCUUGGGCCUGUGGGAGAGGAGGGCUCCGCAACAGAGGAUUGAGCAUCA
B7: chr9:48874791:48874792:+_ENSMUSG00000032264_ENSMUST00000034803|mus_mus|FALSE|FALSE (ssRNA)
RNA: GGGAGUUCUACAGUCCGACGAUCAAGCAUCUCAGCCAACACGAUCCCAGGGACUUUUCCAAUUUCUAGGUCAGCAUCAAGAGGCAAAUCUAGAAGCUGUUUCUGGAGCACUUCCAGGACCAAUCGGAUCUUUGCAAAAGCUUCCAACAGAGGAUUGAGCAUCA
B8: chr2:10924439:10924440:-_ENSG00000143870_ENST00000272227|hu_mus|FALSE|FALSE (ssRNA)
RNA: GGGAGUUCUACAGUCCGACGAUCUCGCUCCCAAGGAAAGCCCAAGGAAGGCUGGGCCGUGGCUCACAACUCAUCCUUCUCCAGGUCAUCCAGCUCCACGUCACUGAGGUCAAUGUCGUCCUCCACAGGGAGCUCACCAUCCUUCAACAGAGGAUUGAGCAUCA
B9: 15936781_15936901_1503_3pUTR_ENSG00000183580_ENST00000504595|human|control|control (ssRNA)
RNA: GGGAGUUCUACAGUCCGACGAUCCCGCAGUGCGCGAUGCUCAGGUACCGCAGGCGGGACUCCAGCUUGGCGAUCUCCCGCAGGCCGAAGUCGCUGACGAAGCGGCAGUCGCUGACGCUCAGCUCCUUGAUGGAGGCGCAGUAGCAACAGAGGAUUGAGCAUCA
B10: chr2:216981417:216981418:+_ENSG00000079246_ENST00000392132|hu_hu|hu_hu_hu_mus_True|8_108 (ssRNA)
RNA: GGGAGUUCUACAGUCCGACGAUCCUGAUACUGAUCCUUGCCAGCAAGGGCAUUAUCAGUGCCAUCUGUGCCAUAGAGGACUAACGCAAUCUCAUCUUUGCUCUCCGAAAAUACCUGUCGUUGGACAAACAUGGUUAUCACUUUCAACAGAGGAUUGAGCAUCA
B11: 11971335_11976889_1083_CDS_ENSG00000103342_ENST00000563468|human|control|control (ssRNA)
RNA: GGGAGUUCUACAGUCCGACGAUCCUCUUCUUCAAUUCCUUUCAGUCUGAUUUUGAGGUUUUCACCUGGGGCUACGGUAUCAGUCUCUACAUCAUCGGAAAGUAUUCCAAGAACUUCCACGUUGUGCUUGUUUGGCAUCAUCACCAACAGAGGAUUGAGCAUCA
B12: chr1:174017691:174017692:+_ENSMUSG00000026553_ENSMUST00000135192|mus_mus|motif|central (ssRNA)
RNA: GGGAGUUCUACAGUCCGACGAUCAACUGGAUGACCCCAUUGUGUAAACUGGUCAGGAUCCAGGGUCUUUUAGGAUGAAAACGGAGGCCUUUGACCCGCGCGCUCUUCGUCUCGAAUUUGGUUAGCAUCCUUCAGGCCUCGGGCCAACAGAGGAUUGAGCAUCA
B13: chr1:39494564:39494565:+_ENSG00000168653_ENST00000372967|hu_hu|hu_hu_hu_mus_True|88_98 (ssRNA)
RNA: GGGAGUUCUACAGUCCGACGAUCAUGCAUUCGCCUCAUCGUUUUCUGCCGAAGCAAGCACUCUUCGAAGUCAUCGAACUCUAUCUUGCACUCCUUUUUCGCCCGGGUCCCACCGAUCCCGUGUGCACACUCUAUCCACUCUUUCAACAGAGGAUUGAGCAUCA
B14: 130643178_130643298_725_CDS_ENSMUSG00000030757_ENSMUST00000042470|mouse|control|control (ssRNA)
RNA: GGGAGUUCUACAGUCCGACGAUCAAUCUUCUCAGGCAGAAUGGUGAGAAACUGUUCGAUUACCAGCUGCUCGAGGAUCUGUUCCUUGGAACGCAUUUCUGGCUUCAGCCACCGACAGCAGAGUUCCCAGAGUUUACUGAAAGCCAACAGAGGAUUGAGCAUCA
B15: chr16:45382771:45382772:-_ENSMUSG00000022661_ENSMUST00000163230|mus_mus|mus_mus_mus_hu_True|1_88 (ssRNA)
RNA: GGGAGUUCUACAGUCCGACGAUCCUGGGUCAUGUUAUAAGACAAAUGGAUAGGGAGGGCAUGCUUCUCAAAAAAUGUGAGCUAUUGUCUAAGACUAACAAUAUUUAUCUAGCUAUAAAAAUAAGUUAAAUGAAUAAACAUUACCAACAGAGGAUUGAGCAUCA
B16: chr18:35731649:35731650:+_ENSMUSG00000037236_ENSMUST00000166793|perfect_dup|motif|central (ssRNA)
RNA: GGGAGUUCUACAGUCCGACGAUCCCCUACUGAGAGAUGACUGCUGGAAUGACUUGGACAUUGUAGAACUAGCUCUUGUCGGUUUUAUAGAUUAAAAAAAAAAAUUUUUUUAAAGACGGCCAAAAAGAAAGCUCAAACUAGAAACAACAGAGGAUUGAGCAUCA
B17: chr16:29586362:29586363:+_ENSMUSG00000038084_ENSMUST00000160597|mus_mus|motif|central (ssRNA)
RNA: GGGAGUUCUACAGUCCGACGAUCGCCACCUCCAACAGCAGAUCCCAGUAUGAUAUAUCGAAGUUUUAAGAGUCUUGCAGCGGACCUUGCUGGCCAAAAGUUCCUGCGGGGCUGGUAGCCAUAUUUAAUUGGAGAAAGUUUCAACAACAGAGGAUUGAGCAUCA
B18: 108360981_108361101_1165_3pUTR_ENSMUSG00000068732_ENSMUST00000090546|mouse|control|control (ssRNA)
RNA: GGGAGUUCUACAGUCCGACGAUCUUGAGAAAUCCCUCAGGCUGCCAGCAUGUGGCAAUCUGUUCUCUCUGCAGAACCACCCUCUCUCAAGUUCCCAGAUGCACAGAAAGAACACACUCCAACAGCCAAACAAUUGUUUCGCCUCAACAGAGGAUUGAGCAUCA
B19: 109530411_109530531_484_CDS_ENSG00000189046_ENST00000429722|human|control|control (ssRNA)
RNA: GGGAGUUCUACAGUCCGACGAUCAAUGUGCCGCCAGCUAGGGCCUGCUGAGUGGCCUCCAUUCCCUGGGGCCUCUCUCCUGGGCCUCUUCCUUGUGCUUUCUUUGUCUCCUCCCAACACAGCUGGCUCUUCUCCAGUUGGCUCCAACAGAGGAUUGAGCAUCA
B20: chr14:72968675:72968676:-_ENSMUSG00000033487_ENSMUST00000089017|mus_hu|FALSE|FALSE (ssRNA)
RNA: GGGAGUUCUACAGUCCGACGAUCAUAUAAGACUUCUUCACUAAAACCACUUGUACCAUAGUCAUUUCUGGCCGAUAGUCUGAAUUUACAGCCCAUUGCUGGUGAAAGUUUAGUAAUUUUAAAUUGUUUCUGUGAGCCCAUGUACAACAGAGGAUUGAGCAUCA
B21: chr4:156296975:156296976:-_ENSG00000164114_ENST00000311277|hu_hu|motif|central (ssRNA)
RNA: GGGAGUUCUACAGUCCGACGAUCUCCUGGAAAGUAGUUCUUUUGGUAACUUUUGGACUCUUUGUAUAUGCCAAAGUGGUGCGGAAAACUUCAUCAGACAUAGUGUAUUUUUUCUCGUUACCUUUAUAAAAUAGCUAAUUAUUACAACAGAGGAUUGAGCAUCA
B22: chr1:184392483:184392484:+_ENSMUSG00000026510_ENSMUST00000117245|mus_mus|FALSE|FALSE (ssRNA)
RNA: GGGAGUUCUACAGUCCGACGAUCCAUUUUUAAAACCAGCUAUGAUCUUGACAAAUACAGGUAAAUCUAUAACAAAUCUCUAAUUUCCAAGAUACAAAAAGACAAUAAAUAUAGAUUCAAAUUCAAUCUAAAAACAAGAUUCUACAACAGAGGAUUGAGCAUCA

These results are taken from article PMC12136788.

This is one part of the list.

The target in this experiment is T1, UNK ZnF1-3. Nature of the experiment: nsRBNS (natural sequence RNA bind-n-seq); RBNS binding buffer (assumed for nsRBNS): 25 mM Tris pH 7.5, 150 mM KCl, 3 mM MgCl2, 0.01% Triton X-100, 500 ug/ml BSA, 20 U/ml SUPERase-In, 4 C; UNK is unkempt and MSI1 is Musashi-1; names of the RNAs are library labels; protein concentration not given here; high values mean tight binding.
In the case of B1, the binding signal amounted to 1.04 enrichment R.

Molecule B2 displayed a binding signal of 2.37 enrichment R.

The molecule B3 displayed a binding signal of 0.623 enrichment R.

B4 displayed a binding signal of 1.33 enrichment R.

Consider B5, for which the binding signal was 0.408 enrichment R.

For B6, the binding signal came to 2.37 enrichment R.

Molecule B7 showed a binding signal of 1.61 enrichment R.

B8: the binding signal worked out at 0.859 enrichment R.

Take B9: the binding signal turned out to be 1.06 enrichment R.

In turn, B10 gave a binding signal of 0.663 enrichment R.

Regarding B11, the binding signal worked out at 0.614 enrichment R.

Turning to B12, the binding signal stood at 0.928 enrichment R.

Molecule B13 yielded a binding signal of 0.574 enrichment R.

As to B14, the binding signal was 1.41 enrichment R.

In the case of B15, the binding signal worked out at 2.4 enrichment R.

Molecule B16 yielded a binding signal of 2.32 enrichment R.

For B17, the binding signal was found to be 1.66 enrichment R.

As to B18, the binding signal amounted to 0.666 enrichment R.

With B19, the binding signal worked out at 0.511 enrichment R.

With B20, the binding signal is 0.872 enrichment R.

B21 came in with a binding signal of 0.992 enrichment R.

As for B22, the binding signal amounted to 0.514 enrichment R.
